Measurements taken from the RNAGym collection of RNA variant scans (doi:10.1093/nar/gkz1192).
The source gives no read counts; variants with many changes may rest on few reads.

B1: CPEB3 Ribozyme (parent)
chain: UAACAGGGGGCCACAGCAGAAGCGUUCACGUCGCAGCCCCUGUCAGAUUCUGGUGAAUCUGCGAAUUCUGCUGUAUAUCUC

Variants of: B1
Experiment: self-cleavage, relative activity (ratio to wild type); higher = more cleavage; in vitro, sequencing
In short: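 For each CPEB3 ribozyme variant, relative activity is its cleaved/total read fraction divided by the unmutated ribozyme's. Barcoded error-prone PCR libraries were transcribed by T7 RNA polymerase (5 hours, 37°C) and held in DNase I for 15 min before an EDTA stop, with cleavage occurring throughout. Template-switching reverse transcription and Illumina sequencing were used to read the RNAs. A 5-read minimum applied, and results are the mean of three batches.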

Variant | self-cleavage
UAACAGGGGGCCACAGCAGAAGCGUUCACGUCGCUGCCCCUGUCAGAUUCUGAUGAAUCAGCGAAUUCUGCUGUAUAUCUC | 0.14
UAACAGGGGGCCACAGCAGAAGCGUUCACGUCGCUGCCCCUGUCAGAUUCUGGUAAACCUGCGAAUUCUGCUGUAUAUCUC | 0.14
UAACAGGGGGCCACAGCAGAAGCGUUCACGUCGCUGCCCCUGUCAGAUUCUGGUGAAUCUGCCAUUUCAGCUGUAUAUCUC | 0.13
UAACAGGGGGCCACAGCAGAAGCGUUCACGUCGCUGCCCCUGUCAGAUUCUGGUGAAUCUGCUAAUUCUGCUGUAUAUCCC | 0.71
UAACAGGGGGCCACAGCAGAAGCGUUCACGUCGCUGCCCCAGUCCGAUUCUGGUGAAUCUGCGAAUUCUGGUGUAUAUCUC | 0.07
UAACAGGGGGCCACAGCAGAAGCGUUCACGUCGCUGCCCCAGUCUGAAUCUGGUGAAUCUGCGAAUUCUGUUGUAUCUCUC | 0.07
UAACAGGGGGCCACAGCAGAAGCGUUCACGUCGCUGCCCCAGUCAGGUUCUGGUGAAUCUGCGAAUUCUGGUGUAUAUCUC | 0.1
UAACAGGGGGCCACAGCAGAAGCGUUCACGUCGCUGCCCCAGUCAGGUCCUGGUGAAUCUACGAAUUCUGCCGUAUAUCUC | 0.08
UAACAGGGGGCCACAGCAGAAGCGUUCACGUCGCUGCCCCAGUCAGGUUCCGGUGAAUCUACGAAUUCUGCCGUAUACCUC | 0.07
UAACAGGGGGCCACAGCAGAAGCGUUCACGUCGCUGCCCCAGUCAGGUUCUGGUGAAACUGCAAAUUCUGCUGUAUAUCUC | 0.12
UAACAGGGGGCCACAGCAGAAGCGUUCACGUCGCUGCCCCAGUCAGAUUCUGGUGAAUCUGCGAAUUCUGCUGUUUAUCUC | 0.23
UAACAGGGGGCCACAGCAGAAGCGUUCACGUCGCUGCCCCAGUCAGAUUCUGGUGAAUCUGCGAAUUCUGCUGUAUGUCUC | 0.19
UAACAGGGGGCCACAGCAGAAGCGUUCACGUCGCUGCCCCAGUUAGAUUCUGGUGAAUAUGCGAUUUCUGCUGUAUAUCUC | 0.1
UAACAGGGGGCCACAGCAGAAGCGUUCACGUCGCUGCCCCAGUCAGAUUCUGGUGAAUAUGCGAAUUCUGCUGUAUUUCUC | 0.22
UAACAGGGGGCCACAGCAGAAGCGUUCACGUCGCUGCCCCAGUCAGAUUCUGGUAAAUCUGCGAAUUCUGCUGUAUACCUC | 0.14
UAACAGGGGGCCACAGCAGAAGCGUUCACGUCGCUGCCCCAGUCAGAUUCUGGUGAAUCUGCGAAUUCUUCUGCAUAUCUC | 0.08
UAACAGGGGGCCACAGCAGAAGCGUUCACGUCGCUGCCCCAGACAGAUCCUGGUGAAUCUGCGUAUUCUGCUGUAUAUCUC | 0.08
UAACAGGGGGCCACAGCAGAAGCGUUCACGUCGCUGCCCCAGUCAGACUCUGGUGAAUCUGCGGAUUCUGCAAUAUAUCUC | 0.12
UAACAGGGGGCCACAGCAGAAGCGUUCACGUCGCUGCCCCAGUCAGAUUCAGGUGAAUCUGCGAAUUCUGCUGUAUAUCUC | 0.28
UAACAGGGGGCCACAGCAGAAGCGUUCACGUCGCUGCCCCAGUCAGAUUCUGGUGAAUCAGCGAAUUCUGCAGUAUACCUC | 0.14
UAACAGGGGGCCACAGCAGAAGCGUUCACGUCGCUGCCCCAGUCAGAUUCUGGUGAAUCCGCGAAUUCUGCUGUAUUUCUC | 0.15
UAACAGGGGGCCACAGCAGAAGCGUUCACGUCGCUGCCCCAGUCAGAUUCUGGUGAAUCUGCGAAGUCUGCUGUAUAUCUC | 0.21
UAACAGGGGGCCACAGCAGAAGCGUUCACGUCGCUGCCCCAGUCAGAUUCUGGUGAAUCUGCGAAUUCAGCUGUAUAUCUC | 0.49

Variant | self-cleavage
UAACAGGGGGCCACAGCAGAAGCGUUCACGUCGCUGCCCCAGUCAGAUUCUGGUGAAUCUGCGAAUUCUGCUGCAUAUCUC | 0.17
UAACAGGGGGCCACAGCAGAAGCGUUCACGUCGCUGCCCCAGUCAGAUUCUGGUGAAUCUGCGAAUUCUGCUGUACAUCUC | 0.53
UAACAGGGGGCCACAGCAGAAGCGUUCACGUCGCUGCCCCCGUCAGGUCCUGGCGAAUCUGCGAAUUCUGCUGUAUAUCGC | 0.35
UAACAGGGGGCCACAGCAGAAGCGUUCACGUCGCUGCCCCCGUCAGUUUCUGGUGAGUCUGCGAAUUCUGCUGUAUAACUC | 0.09
UAACAGGGGGCCACAGCAGAAGCGUUCACGUCGCUGCCCCCGUCAGAUUCUGGUGGAUCUGCGAAUUCUGCUGUAUAUCUC | 0.46
UAACAGGGGGCCACAGCAGAAGCGUUCACGUCGCUGCCCCCGUCAGAUUCUGGUGAAUCUGCGAGUUCUGCUGUAUAUCUC | 0.28
UAACAGGGGGCCACAGCAGAAGCGUUCACGUCGCUGCCCCCGUCAGAUUCUGGUGAAUCUGCGAAUUCUGCUGUAUGUCUC | 0.65
UAACAGGGGGCCACAGCAGAAGCGUUCACGUCGCUGCCCCCGUCAGAUUAUGGUGAAUCUGCGAAUUCUGCAGUAUAUCUC | 0.29
UAACAGGGGGCCACAGCAGAAGCGUUCACGUCGCUGCCCCCGUCAGAUUCUGGUGAAUCUGGGAAUUCUGCUGUAUAUCUC | 0.15
UAACAGGGGGCCACAGCAGAAGCGUUCACGUCGCUGCCCCCGUCAAAUUCUGGUGAAUCUGCGAAUUCUGCUGUAUAUCUC | 0.19
UAACAGGGGGCCACAGCAGAAGCGUUCACGUCGCUGCCCCCGUCAGAUUCUGGUGAAUCUGCGAAUUCUGCUCUAUAUCUC | 1.11
UAACAGGGGGCCACAGCAGAAGCGUUCACGUCGCUGCCCCCGUCAGACUCUGGUGAAUCUGCGAAUUCUGCUGUAUAUCUC | 0.43
UAACAGGGGGCCACAGCAGAAGCGUUCACGUCGCUGCCCCCGUCAGAUUCAGGUGAACCUGCGAAUUCUGCUGUAUAUCUC | 0.2
UAACAGGGGGCCACAGCAGAAGCGUUCACGUCGCUGCCCCCGUCAGAUUCUGGCGAAUCCGCGAAUUCUGCUGUAUAUCUC | 0.14
UAACAGGGGGCCACAGCAGAAGCGUUCACGUCGCUGCCCCCGUCAGAUUCUGGCGAAUCUGCGAAUUCUGCGGUAUAUCUC | 0.7
UAACAGGGGGCCACAGCAGAAGCGUUCACGUCGCUGCCCCCGUCAGAUUCUGGUGAACCUGCGAAUUCUGCUGUAUAUCCC | 0.41
UAACAGGGGGCCACAGCAGAAGCGUUCACGUCGCUGCCCCCGUCAGAUUCUGGUGAAUCAGCGAAUUCUGCUGUAUAUCUC | 0.21
UAACAGGGGGCCACAGCAGAAGCGUUCACGUCGCUGCCCCCGUCAGAUUCUGGUGAAUCUGCGAAUUCAGCUGUAUAUCUC | 0.2
UAACAGGGGGCCACAGCAGAAGCGUUCACGUCGCUGCCCCCGUCAGAUUCUGGUGAAUCUGCGAAUUCUGCUGUAAAUCUC | 0.52
UAACAGGGGGCCACAGCAGAAGCGUUCACGUCGCUGCCCCCGUCAGAUUCUGGUGAAUCUGCGAAUUCUGCUGUAUACCUC | 0.49
UAACAGGGGGCCACAGCAGAAGCGUUCACGUCGCUGCCCCGGUCAGAUUCUGGUGAAUCUGCGUAUCCUGCCGUAUAUCUC | 0.08
UAACAGGGGGCCACAGCAGAAGCGUUCACGUCGCUGCCCCGGUCAGAUUCUGGUGAAUCUGCGAAUUCUGCUGUAUGUCUC | 0.29
UAACAGGGGGCCACAGCAGAAGCGUUCACGUCGCUGCCCCGGUCAGAUUCUGCGGAGUCUGCGAAUUCUGCUGCAUAUCUC | 0.15

Variant | self-cleavage
UAACAGGGGGCCACAGCAGAAGCGUUCACGUCGCUGCCCCGGUCAGAUCCUGGUGAAUCUGCGAAUUCUGCCGUAUAUCUC | 0.06
UAACAGGGGGCCACAGCAGAAGCGUUCACGUCGCUGCCCCGGUCAGAUUCCGGUGUAUCUGCGAAUUCCGCUGUAUACCUC | 0.09
UAACAGGGGGCCACAGCAGAAGCGUUCACGUCGCUGCCCCGGUCAGAUUCUGGUGAAUCUGCGAAUUCCGCUGUAUAUCUC | 0.45
UAACAGGGGGCCACAGCAGAAGCGUUCACGUCGCUGCCCCUGACGGUUUCUGGUGAAUCUGCGAAUUCUGCUGUAAAUCUC | 0.17
UAACAGGGGGCCACAGCAGAAGCGUUCACGUCGCUGCCCCUGACUGAUUCUGGUGAACCUGCGAAUUCUGCUGUAUUUCUC | 0.23
UAACAGGGGGCCACAGCAGAAGCGUUCACGUCGCUGCCCCUGACAGGUUCUGGGGAAUCUGCGAAUUCUGCCGUAUAUCUC | 0.32
UAACAGGGGGCCACAGCAGAAGCGUUCACGUCGCUGCCCCUGACAGGUUCUGGUGAAUCUGCGAAUUCCGCUGCAUAUCUC | 0.13
UAACAGGGGGCCACAGCAGAAGCGUUCACGUCGCUGCCCCUGACAGAUUCUGGUGAAUCUGCGGAUUCUGCUGUAUUUCUC | 0.59
UAACAGGGGGCCACAGCAGAAGCGUUCACGUCGCUGCCCCUGACAGAUUCUCGUGGAUCUGCGAAUUCUGCUGUAUAUCUC | 0.33
UAACAGGGGGCCACAGCAGAAGCGUUCACGUCGCUGCCCCUGACAGAUACAGGUGAGUCAGCGAAUUCUGCUGUAUAUCUC | 0.17
UAACAGGGGGCCACAGCAGAAGCGUUCACGUCGCUGCCCCUGACAGAUUCUGGAGAAUCUGCGAAUUCUGCUGUAUAUCUC | 0.36
UAACAGGGGGCCACAGCAGAAGCGUUCACGUCGCUGCCCCUGACAGAUUCUGGCGAAUCUGCGAAUCCAGCUGUAUAUCUC | 0.14
UAACAGGGGGCCACAGCAGAAGCGUUCACGUCGCUGCCCCUGACAGAUUCUGGUGAACCUGCGAAUUCUGCUGUAUAUCUC | 0.14
UAACAGGGGGCCACAGCAGAAGCGUUCACGUCGCUGCCCCUGACAGAUUCUGGUGAACCAGCGAAUUCUGCCGUAUAUCUC | 0.12
UAACAGGGGGCCACAGCAGAAGCGUUCACGUCGCUGCCCCUGCCUGAUUCUGGUGAACCUGCGAGUUCUGCCGUAUAUCUC | 0.07
UAACAGGGGGCCACAGCAGAAGCGUUCACGUCGCUGCCCCUGCCAGAUUCUGGUGGAUCUGCGAAUUCUGCUGUAUAUCUC | 0.3
UAACAGGGGGCCACAGCAGAAGCGUUCACGUCGCUGCCCCUGCCAGAUUCUGGUGAAUCUGCGAAUUCUCCUGUAUAUCUC | 0.1
UAACAGGGGGCCACAGCAGAAGCGUUCACGUCGCUGCCCCUGCCAGACUCUGGUGAAUCUGCGAGAUCUGCUGUAUAUCUC | 0.16
UAACAGGGGGCCACAGCAGAAGCGUUCACGUCGCUGCCCCUGCCAGAUUCCGGUGAAUCUGCGAAUUCUGCUGUAUUUCUC | 0.25
UAACAGGGGGCCACAGCAGAAGCGUUCACGUCGCUGCCCCUGCCAGAUUCCGGUGAAUCUGCGAAUUCAGCUGUAUAUCUC | 0.17
UAACAGGGGGCCACAGCAGAAGCGUUCACGUCGCUGCCCCUGCCAGAUUCUGGUGAAACUGCGAAUUCUGCUGUAUACCUC | 0.13
UAACAGGGGGCCACAGCAGAAGCGUUCACGUCGCUGCCCCUGCCAGAUUCUGGUGAAUCUGCGAAUCCUGCUGUAUAUCUC | 0.32
